The target of test [1] is T1, IL-2Rα in human Fc fusion protein format (ACROBiosystems) (human, UniProt P01589 22-217, limits assumed).
T1 construct: Bought reagent, captured on anti-Human IgG Fc Capture (AHC) sensors; also called CD25; not shown: human Fc
T1 sequence (looked up): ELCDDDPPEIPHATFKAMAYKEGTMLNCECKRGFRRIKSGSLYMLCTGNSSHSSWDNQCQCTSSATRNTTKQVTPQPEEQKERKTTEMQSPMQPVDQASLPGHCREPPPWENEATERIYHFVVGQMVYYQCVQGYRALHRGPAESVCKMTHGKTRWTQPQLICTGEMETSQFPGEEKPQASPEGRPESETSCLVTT
The test can be described thus: Octet QKe BLI, IL-2Rα-Fc captured on AHC sensors. The source says: (§1) IL-2Rα or IL-2Rβ in human Fc fusion protein format (ACROBiosystems) were captured on anti-Human IgG Fc Capture (AHC) sensors. […] Dissociation was detected following transfer of sensors into wells containing buffer alone. Data were collected and analyzed by Octet User Software. For analysis of the kinetics constants, 1:1 curve fitting model was used.

The target in test [2] is T2, IL-2Rβγ on human CD8+CD45RA+CD25low naïve T cells (human, UniProt P14784 27-551; P31785 23-369).
T2 sequence (looked up) 1: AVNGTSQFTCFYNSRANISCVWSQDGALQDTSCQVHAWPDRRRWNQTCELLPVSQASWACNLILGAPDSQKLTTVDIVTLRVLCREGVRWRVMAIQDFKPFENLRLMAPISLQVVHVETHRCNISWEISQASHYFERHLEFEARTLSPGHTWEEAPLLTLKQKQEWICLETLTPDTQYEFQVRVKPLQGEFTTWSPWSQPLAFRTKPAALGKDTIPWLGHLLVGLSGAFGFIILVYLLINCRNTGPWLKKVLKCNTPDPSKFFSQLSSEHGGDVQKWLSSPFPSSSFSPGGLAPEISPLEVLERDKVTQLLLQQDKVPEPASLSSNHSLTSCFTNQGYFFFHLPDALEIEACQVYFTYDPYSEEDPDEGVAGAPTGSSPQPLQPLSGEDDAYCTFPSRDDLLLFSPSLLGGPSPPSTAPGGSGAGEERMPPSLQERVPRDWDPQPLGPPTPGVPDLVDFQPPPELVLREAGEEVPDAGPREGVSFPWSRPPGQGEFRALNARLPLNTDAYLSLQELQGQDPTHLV
T2 sequence (looked up) 2: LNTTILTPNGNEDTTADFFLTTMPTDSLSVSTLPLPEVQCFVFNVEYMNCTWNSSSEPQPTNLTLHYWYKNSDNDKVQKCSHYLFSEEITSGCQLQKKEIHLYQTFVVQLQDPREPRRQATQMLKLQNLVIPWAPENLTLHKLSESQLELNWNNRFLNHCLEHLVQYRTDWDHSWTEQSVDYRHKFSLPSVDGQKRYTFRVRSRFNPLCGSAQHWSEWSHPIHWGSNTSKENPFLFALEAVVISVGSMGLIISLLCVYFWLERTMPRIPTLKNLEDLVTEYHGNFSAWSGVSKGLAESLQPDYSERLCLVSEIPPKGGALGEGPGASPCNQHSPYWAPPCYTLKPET
Kind of test: cell-based or functional assay.

In test [3] the target is T3, IL-2Rαβγ on human T cells (human, UniProt P01589 22-272; P14784 27-551; P31785 23-369).
T3 sequence (looked up) 1: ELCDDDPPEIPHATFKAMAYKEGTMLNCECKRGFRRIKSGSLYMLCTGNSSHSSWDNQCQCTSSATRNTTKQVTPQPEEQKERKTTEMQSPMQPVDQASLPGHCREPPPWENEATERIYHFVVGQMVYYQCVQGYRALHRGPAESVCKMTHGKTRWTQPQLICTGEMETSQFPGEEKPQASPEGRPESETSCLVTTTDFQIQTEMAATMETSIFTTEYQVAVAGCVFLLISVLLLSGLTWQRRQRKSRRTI
T3 sequence (looked up) 2: T2 sequence (looked up) 1
T3 sequence (looked up) 3: T2 sequence (looked up) 2
Kind of test: cell-based or functional assay.

For test [4], the target named is T1, IL-2Rα in human Fc fusion protein …. Kind of test: Octet QKe BLI, IL-2Rα-Fc on AHC sensors, 1:1 fit.
Excerpt: as §1

The target is the same in test [5]. Kind of test: Octet QKe (biolayer interferometry): IL-2Rα-human Fc on AHC sensors, serial dilutions of the IL-2 variant [cont.].
Excerpt: as §1
On the technique in general: BLI is a label-free optical method that tracks binding on a fibre tip over time.

B1: K35C-PEG20 (ligand)
chain: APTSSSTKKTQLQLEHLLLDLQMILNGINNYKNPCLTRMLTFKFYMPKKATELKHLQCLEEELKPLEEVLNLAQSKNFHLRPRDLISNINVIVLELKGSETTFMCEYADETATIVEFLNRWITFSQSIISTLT
modifications: maleimide-PEG 20K on Cys 35
notes: rhIL-2 (C125S) background, PEGylated at the introduced cysteine; not shown: His tag
As to B1, the binding result in test [1] is “no binding”.

B2: N33C-PEG20 (ligand, not shown: small tags and cut ends)
chain: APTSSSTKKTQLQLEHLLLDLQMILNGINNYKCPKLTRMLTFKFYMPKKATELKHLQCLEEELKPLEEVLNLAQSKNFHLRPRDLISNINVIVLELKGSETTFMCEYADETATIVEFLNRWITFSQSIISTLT
modifications: maleimide-PEG 20K on Cys 33
With B2, the “EC50 of STAT5 phosphorylation, CD25-CD8+ naïve T (IL-2Rβγ)” value (“EC50 … (IL-2Rβγ)” below) in test [2] came out at 6.34 µg/mL. In test [3], the “EC50 of STAT5 phosphorylation, CD25+CD4+ T (IL-2Rαβγ)” value (“EC50 … (IL-2Rαβγ)” for short) was 0.31 µg/mL.

B3: Y31C-PEG20 (ligand)
chain: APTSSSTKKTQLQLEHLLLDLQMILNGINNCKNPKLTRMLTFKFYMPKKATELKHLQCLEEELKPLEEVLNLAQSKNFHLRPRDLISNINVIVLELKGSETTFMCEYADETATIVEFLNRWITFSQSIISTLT
modifications: maleimide-PEG 20K on Cys 31
notes: rhIL-2 (C125S) background, PEGylated at the introduced cysteine; also called Y31C-PEG20 conjugate; not shown: His tag
One may read the Kd as the free concentration of one partner at which half of the binding sites on the other are occupied at equilibrium, for simple one-to-one binding. A lower Kd goes with tighter binding. The koff is a measure of how fast the partners let go of each other. A word on the kon: it is the rate constant with which the complex forms. Take B3: in test [4], the Kd came out at 73 nM, the koff amounted to 0.0279 s⁻¹ and the kon amounted to 383000 M⁻¹ s⁻¹.

B4: N30C-PEG20 (ligand)
chain: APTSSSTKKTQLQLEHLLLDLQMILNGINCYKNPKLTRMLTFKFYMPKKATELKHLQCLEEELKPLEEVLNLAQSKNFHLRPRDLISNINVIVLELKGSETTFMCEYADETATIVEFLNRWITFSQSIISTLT
modifications: maleimide-PEG 20K on Cys 30
notes: also called N30-P20; not shown: His tag
Consider B4, for which the “EC50 … (IL-2Rβγ)” value in test [2] was 17.3 µg/mL. Further, the “EC50 … (IL-2Rαβγ)” value in test [3] was 0.26 µg/mL. Moreover, in test [4], the Kd was determined as 117 nM, the koff was determined as 0.0697 s⁻¹ and the kon came to 593000 M⁻¹ s⁻¹.

B5: T41C-PEG20 (ligand)
chain: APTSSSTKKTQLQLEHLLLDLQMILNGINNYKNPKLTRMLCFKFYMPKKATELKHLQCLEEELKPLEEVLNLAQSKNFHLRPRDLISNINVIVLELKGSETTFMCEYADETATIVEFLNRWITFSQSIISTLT
modifications: maleimide-PEG 20K on Cys 41
notes: as for B1
As to B5, the binding result in test [1] is reported as “no binding”.

B6: P65C-PEG20 (ligand)
chain: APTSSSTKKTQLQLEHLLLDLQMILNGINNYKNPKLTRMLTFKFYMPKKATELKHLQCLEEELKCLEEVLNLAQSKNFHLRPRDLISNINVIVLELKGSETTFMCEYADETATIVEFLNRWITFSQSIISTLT
modifications: maleimide-PEG 20K on Cys 65
notes: also called P65C-PEG20 conjugate; P65-P20; not shown: His tag
On to B6, for which, in test [2], the “EC50 … (IL-2Rβγ)” value turned out to be 3.98 µg/mL. Also, the “EC50 … (IL-2Rαβγ)” value in test [3] came to 1.36 µg/mL. Further, in test [5], the binding result was “no binding (tested: not printed)”.

B7: R38C-PEG20 (ligand)
chain: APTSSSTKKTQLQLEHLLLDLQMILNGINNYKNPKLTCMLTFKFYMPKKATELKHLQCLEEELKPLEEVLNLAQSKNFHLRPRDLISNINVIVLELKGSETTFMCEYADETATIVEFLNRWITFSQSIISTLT
modifications: maleimide-PEG 20K on Cys 38
notes: also called R38-P20; not shown: His tag
For the molecule B7, in test [2], the “EC50 … (IL-2Rβγ)” value stood at 8.19 µg/mL. In addition, the “EC50 … (IL-2Rαβγ)” value in test [3] is 3.39 µg/mL. The binding result in test [1] is reported as “no binding”.

For the origin of these results see patent US20220289806A1 (CYTIMM THERAPEUTICS, published 2022).
